About 65 (0.1%) of roughly 45,000 compounds were called active. Calls come from the whole dose curve; as a rule, active = well fitted activation curve with a large enough effect; inconclusive = small, poorly fitted or top-dose-only effect; inactive = no such curve, though single readings can be large or run the other way. This is one part of the list.
What follows are molecules tested against Galactocerebrosidase (Homo sapiens) (UniProt P54803) (assay: A Novel Cell-Based Assay to Identify Small Molecules for B -Galactocerebrosidase). Conditions: 145M-Twi-hGALC-G270D cells (Twitcher mouse brain line with human GALC G270D), HMU-beta-Gal fluorescence, 48 h; series mostly up to 57.5 µM; activation: at the top concentration.
Chain of UniProt P54803 (P54803 whole entry, looked up): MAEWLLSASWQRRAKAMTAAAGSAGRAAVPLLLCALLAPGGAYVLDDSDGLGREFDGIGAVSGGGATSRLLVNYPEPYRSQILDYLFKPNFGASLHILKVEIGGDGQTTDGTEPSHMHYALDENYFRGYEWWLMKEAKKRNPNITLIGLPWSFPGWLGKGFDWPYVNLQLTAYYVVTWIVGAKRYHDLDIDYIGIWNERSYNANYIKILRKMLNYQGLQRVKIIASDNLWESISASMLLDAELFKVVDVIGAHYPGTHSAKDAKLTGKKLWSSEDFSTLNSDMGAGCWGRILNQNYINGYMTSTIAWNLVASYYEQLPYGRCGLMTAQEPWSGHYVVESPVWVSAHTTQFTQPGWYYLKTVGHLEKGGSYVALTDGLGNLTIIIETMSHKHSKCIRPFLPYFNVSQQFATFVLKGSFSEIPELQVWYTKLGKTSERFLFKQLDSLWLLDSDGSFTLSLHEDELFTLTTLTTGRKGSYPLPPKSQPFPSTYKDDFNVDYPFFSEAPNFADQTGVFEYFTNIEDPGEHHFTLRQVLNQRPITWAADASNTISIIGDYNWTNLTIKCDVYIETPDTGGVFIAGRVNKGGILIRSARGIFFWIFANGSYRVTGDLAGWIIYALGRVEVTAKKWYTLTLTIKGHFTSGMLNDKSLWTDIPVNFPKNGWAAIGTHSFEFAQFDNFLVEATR
Outline: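 Fluorescence readout: HMU-β-gal cleavage by mutant GALC (0.1 mM final, citrate/phosphate pH 5.2 with 1 mg/mL taurocholate), stopped with carbonate/bicarbonate plus Triton X-100. Cells: murine Twitcher 145M-Twi expressing human G270D GALC; qHTS for activators.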
Note: 0% is about no effect; nearly all actives have a fitted effect of over 65% in size.

activation, inactive:
COc1ccc(/C=C/C(=O)Nc2nc(-c3cccs3)ns2)cc1OC -9.85%
COc1ccc(N2CC(NC(=O)c3ccc(S(=O)(=O)N4CCCCC4)cc3)CC2=O)cc1 (stereo unspecified) 7.9%
CCc1cccc(NC(=O)C(Cc2ccccc2)n2cccc2)c1 (stereo unspecified) -2.93%
CCOc1ccc(CNC(=O)c2ccc3c(c2)nc2n3CCOC2)cc1OC -16.1%
Cc1ccc(C(=O)Nc2c(C)nc3ccccn3c2=O)cc1C -18.8%
CCCOc1cccc(C(=O)Nc2cc(-c3ccccc3)no2)c1 -1.19%
CC1=C(C(=O)Nc2ccc(F)cc2F)C2(CCN(C(C)C)CC2)OC1=O 1.38%
CCc1ccc(NC(=O)CN(c2cc(C)cc(C)c2)S(=O)(=O)c2c(C)[nH]c(=O)[nH]c2=O)cc1 -15.3%
Cc1ccc(CNC(=O)c2ccc3nc(SCc4ccc(F)cc4)[nH]c3c2)cc1 -10.2%
CC1=C(c2ccc(C(C)C)cc2)S(=O)(=O)N=C1N1CCC(C(=O)NCCc2ccco2)CC1 -6.58%
COc1cccc(-c2nc(SCC(=O)NC3CCCC3)c(-c3ccc(C)cc3)[nH]2)c1 -18.9%
CCN(CC)C(=O)CSc1nc(-c2ccc(C)cc2)nc2c1Cc1c(CO)cnc(C)c1O2 -11.9%
CCN(c1ccccc1)S(=O)(=O)c1c(-c2ccc(C)cc2)csc1C(=O)OC -18.1%
COc1ccccc1C(=O)Nc1ccc2oc(-c3cccc4c(Br)cccc34)nc2c1 -10.3%
CCC1Oc2ccc(Cl)cc2N(CC(=O)NCCc2ccc(Cl)cc2)C1=O (stereo unspecified) -13.8%
CCCN1Cc2cccc(C(=O)Nc3cccc(C(=O)OCC)c3)c2C1=O -7.39%
CCc1cccc(C)c1NC(=O)Cn1nc(C)c2nn(-c3ccc(Cl)cc3)c(C)c2c1=O -15.1%
COc1ccc(/C=C/C(=O)Nc2ccc3nc(N4CCC(C)CC4)cc(C)c3c2)cc1 -2.6%
CCCCCCCCCCCCCCCC[n+]1ccccc1 -14.7%
COCCNc1nc(NCc2cccc(Cl)c2)c2cnn(C)c2n1 -12%
C=Cc1ccc(Cn2c(C)c(CNCc3ccccc3C)c(C(=O)O)c2C)cc1 7.08%
COc1ccccc1CNC(=O)CCn1c(=O)c2cccn2c2cccnc21 -4.59%
O=[N+]([O-])c1cc(-c2nc(-c3ccccc3)no2)ccc1NC1CCCCC1 6.04%
O=C(Cc1csc2nc(-c3ccc(F)cc3)cn12)NCc1ccccc1 -13.5%
CCN(C(=O)CN1C(=O)COc2ccc(S(=O)(=O)N3CCOCC3)cc21)c1ccc(OC)cc1 -16.5%
Cc1ccc(NC(=O)c2ccc3c(O)c(S(=O)(=O)c4ccccc4)c(=O)[nH]c3c2)cc1Cl -26.6%
O=C(Nc1nnc(S(=O)(=O)N2CCCCC2)s1)c1ccccc1Br -21.1%
Cc1ccc(-c2nnc(Nc3ccc(C(=O)N(C)C)cc3)c3ccccc23)cc1S(=O)(=O)N(C)C -8.96%
N[C@@H](C(=O)N[C@@H]1C(=O)N2C(C(=O)O)=C(Cl)CS[C@H]12)c1ccccc1 -4.94% [at 11.5 µM]
COc1ccc(C(=O)NCC(c2ccc(N(C)C)cc2)N2CCc3ccccc32)cc1OC (stereo unspecified) -21.2%
COC(=O)c1ccccc1NC(=O)C1CCN(C(=O)N2CC(C)Oc3ccccc32)CC1 (stereo unspecified) -6.75%
Cc1ccc(OCC(=O)Nc2ccccc2OCc2cc(=O)n3ccccc3n2)cc1C -1.89%
Cc1cccc(NC(c2ccccc2F)c2ccc3ccc(C)nc3c2O)n1 (stereo unspecified) -6.89%
CN1[C@@H]2CC[C@H]1CC(NC(=O)n1c(=O)[nH]c3ccccc31)C2 (stereo partly specified) -15.5%
COc1ccc(-c2nc3ccccc3s2)cc1NC(=O)c1ccc(F)cc1 -15.6%
O=C(Nc1cccc(F)c1)c1ccc2c(c1)N(Cc1ccccc1)C(=O)c1ccccc1S2(=O)=O -21.2%
CC(C)(C)CC(=O)NCC(c1ccc2c(c1)OCO2)N1CCOCC1 (stereo unspecified) -5.47%
O=C(COc1ccc(Cl)cc1)OCc1cc(=O)n2nc(C3CC3)sc2n1 -4.46%
COc1ccc(C(=O)Nc2nc(-c3nnn(-c4ccc(C(C)C)cc4)c3C)ns2)cc1 0.441%
COc1ccccc1CCNC(=O)C(C)Sc1nc(-c2ccccc2)cc(C(F)(F)F)n1 (stereo unspecified) -3.38%
CCc1ccc(NC(=O)Cn2c(=O)n(CCC(=O)NCCc3ccc(Cl)cc3)c(=O)c3ccccc32)cc1 0.379%
COc1ccc(C)cc1NC(=O)Nc1cccc(-c2noc(C)n2)c1 -22.5%
Cc1noc(/C=C/c2ccccc2F)c1S(=O)(=O)N1CCC(C(=O)N2CCOc3ccccc32)CC1 -11.1%
COc1ccc(Nc2ncnc3c2nc2n3CCCCC2)cc1 -12.1%
CCCOc1ccc(CNC(=O)c2[nH]c3cc(OC)ccc3c2Sc2ccccc2)cc1 -9.62%
O=C(Cn1ncn2c(cc3ccccc32)c1=O)NCc1ccc(F)cc1 -8.36%
Cc1ccc(-c2cc(-c3ccccc3)c(C#N)c(SCC(O)CS(=O)(=O)Cc3ccccc3)n2)cc1 (stereo unspecified) -12.4%
Cc1ccc2[nH]c(=O)c3cc(C(=O)NCCCN4CCC(C)CC4)sc3c2c1 -11.9%
CCN(C(=O)CSc1nc2ccccc2n1Cc1ccc(F)cc1Cl)c1ccccc1 -16.8%
CC(=O)Nc1ccc(N(C(=O)Cn2nnc3ccccc32)C(C(=O)NCc2ccccc2)c2ccc(C)cc2)cc1 (stereo unspecified) -26.9%
COc1ccc(CCNC(=O)c2c(C)oc3ncn(C)c(=O)c23)c(OC)c1 -2.81%
COC(=O)c1ccccc1NC(=O)CCCn1c(=O)c2cccn2c2cccnc21 -1.55%
COc1ccc(CC(=O)NCc2nc3cccnc3n2Cc2ccccc2)cc1 -7.32%
CN(C)c1ccc(Nc2ncnc3sc4c(c23)CCCC4)cc1 -0.357%
Cc1cc(NC(=O)CN2CCC(C)CC2)nc2c1c(=O)oc1ccccc12 -9.93%
CCOC(=O)C(Cc1c[nH]c2ccccc12)NC(=O)COc1ccc(CC)cc1 (stereo unspecified) -15.9%
COc1ccc(C)cc1N(C)C(=O)CCc1nc(-c2ccccc2F)no1 -4.51%
CCOC(=O)c1c(C)[nH]c(C)c1S(=O)(=O)N1CCC(C(=O)NCc2ccccc2Cl)CC1 -18.6%
CCCCNc1oc(-c2ccc(COc3ccc(OC)cc3)o2)nc1C#N -11%
Cc1ccc(Cl)cc1NC(=O)CN1C(=O)CCc2ccccc21 -12.5%
O=c1c2cn[nH]c2nc(SCc2c(F)cccc2F)n1-c1ccc(Cl)cc1 -20.3%
CCCCN(CC)CCCNC(=O)Cn1ncc2c([nH]c3ccc(C)cc32)c1=O -4.51%
COc1cccc(N2CCN(S(=O)(=O)c3cc(-c4cc(C)no4)ccc3C)CC2)c1 -21.1%
O=C(Cn1cnc2ccccc2c1=O)NCCC(=O)Nc1ccc(F)cc1 -16.3%
CC(C)COc1ccc(C(=O)Nc2cc(-c3ccccc3)no2)cc1 -23.5%
CCOc1cccc(C(=O)Nc2nc3c(s2)CC(C(C)(C)C)CC3)c1 (stereo unspecified) -11.9%
COc1ccc(N(CC(=O)N2CCN(c3ccc(F)cc3)CC2)S(=O)(=O)c2c(C)noc2C)cc1 -24.2%
O=C(NCc1ccco1)c1ccc2c(c1)N(Cc1ccc(F)cc1)C(=O)c1ccccc1S2(=O)=O -6.49%
CCCCN1C(=O)C(O)(CC(=O)c2ccc(C)cc2C)c2cc(Br)ccc21 (stereo unspecified) -10.3%
COc1cc(OC)cc(-c2nc3n(n2)C(c2ccccc2)C(C(N)=O)=C(C)N3)c1 (stereo unspecified) -18.1%
CC(=O)N1c2ccc(S(=O)(=O)Nc3ccc(Cl)cc3C)cc2CC1C (stereo unspecified) -4.85%
COc1ccccc1NC(=O)COc1ccc(-c2nn(C)c(=O)c3ccccc23)cc1 -8.36%
COc1cccc(CNC(=O)c2cc(Sc3cccc(Cl)c3)nc3ccccc23)c1 -27%
Cc1ccc(/C=C/C(=O)Nc2ccccc2C(N)=O)o1 -11.6%
CCCCS(=O)(=O)c1oc(-c2ccc(F)cc2)nc1S(=O)(=O)c1ccc(C)cc1 -15.6%
Cn1c(=O)oc2cc(S(=O)(=O)N3CCC(C(=O)N4CCN(c5ccccc5F)CC4)CC3)ccc21 -7.61%
CCOC(=O)c1c(NC(=O)COc2cccc(C)c2C)sc2c1CCC(CC)C2 (stereo unspecified) -22.9%
O=C(NCc1cccc(F)c1)c1ccc(NC(=O)c2nsc3ccccc23)cc1 -4.87%
Cc1ccc(CCNC(=O)c2c(C)oc3ncn(CC(C)C)c(=O)c23)cc1 0.615%
CC(C)(C)OC(=O)N1CCC(c2c(C(=O)NCCc3ccccc3)cnn2-c2ccc(F)cc2F)CC1 -3.83%
COc1ccc(-c2c(C)c3ccc(O)c(CN4CCN(CCO)CC4)c3oc2=O)cc1OC -14.3%
Cc1sc(-c2cc3c([nH]c2=O)CC(c2ccccc2)CC3=O)nc1-c1ccc(Cl)cc1 (stereo unspecified) -14.8%
Cc1c(C(=O)N2CCOCC2)oc2c1-c1nn(CC(=O)NCc3cccc(Cl)c3)cc1CC2 -6.55%
Cc1ccc(C)c(N2CCN(CCCNC(=O)c3cnn(-c4ccc(F)cc4)c3C3CCN(C(=O)OC(C)(C)C)CC3)CC2)c1 -11.6%
C#CCn1c(=O)n(-c2cccc(Cl)c2C)c(=O)c2c3c(sc21)CN(C(C)=O)CC3 -19%
CC(=O)c1ccc(-n2c(CCC(=O)O)ccc2-c2cccs2)cc1 -10.3%
Cc1ccc(C)c(CSc2nnc(C)n3c2cc2sccc23)c1 -3.33%
COc1ccc(-c2cnc(C)o2)cc1S(=O)(=O)Nc1ccc(OC(F)(F)F)cc1 -1.51%
CCOc1ccc(CNC(=O)Cn2nc(C)c3c(C)n(-c4ccc(C)cc4)nc3c2=O)cc1 -15.7%
CC(C)C(=O)Nc1nc2c(s1)CC(C(C)(C)C)CC2 (stereo unspecified) -11%
O=C(CS(=O)(=O)c1cccc2nsnc12)NCc1ccccc1 -22.1%
COc1cc(NC(=O)C(Cc2ccccc2)NS(=O)(=O)c2cccs2)cc(OC)c1 (stereo unspecified) -15.6%
Cc1noc(/C=C/c2ccccc2F)c1S(=O)(=O)N1CCC(C(=O)NCC(C)c2ccccc2)CC1 (stereo unspecified) -8.61%
O=C(Cn1c(=O)nc(-c2ccccc2)c2ccccc21)N1CCN(c2ccc(F)cc2)CC1 -9.71%
COc1cc(OC)c(NC2=C(c3ccc(C(F)(F)F)cc3)C(=O)c3ccccc32)cc1Cl -4.64%
Cc1ccc(-n2c(=O)c3c(c4cc(C)ccc4n3C)n(CC(=O)c3ccc(Cl)cc3)c2=O)cc1 -6.88%

— PubChem BioAssay AID1159614 (National Center for Advancing Translational Sciences (NCATS), 2016)
